63 sequences from the supplement of paper PMC10681739 can be followed below.

Whole data set: some 2,700 sequences, median “arbitrary fluorescence units” near 4,100, cut for the highest 2% near 54,000. Some of the results follow.

This assay deals with T1, ETS1 (UniProt P14921).
T1 sequence: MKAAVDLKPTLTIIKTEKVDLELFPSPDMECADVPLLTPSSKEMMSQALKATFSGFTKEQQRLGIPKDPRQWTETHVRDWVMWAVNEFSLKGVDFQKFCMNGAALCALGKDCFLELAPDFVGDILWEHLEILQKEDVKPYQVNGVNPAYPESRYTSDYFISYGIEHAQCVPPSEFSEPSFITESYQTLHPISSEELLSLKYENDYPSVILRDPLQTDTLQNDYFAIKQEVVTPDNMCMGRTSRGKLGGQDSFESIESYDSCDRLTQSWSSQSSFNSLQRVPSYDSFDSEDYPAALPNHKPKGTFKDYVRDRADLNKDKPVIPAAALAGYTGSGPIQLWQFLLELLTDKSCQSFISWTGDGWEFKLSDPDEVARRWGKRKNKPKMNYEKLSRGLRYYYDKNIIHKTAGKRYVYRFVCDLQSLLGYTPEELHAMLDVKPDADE
Nature of the assay: ETS1 binding intensity (PBM fluorescence) (arbitrary fluorescence units); higher = stronger binding. The following applies: ETS1 concentration 10 nM. As to the method:
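gcPBM on wild-type 36-bp genomic probes with two neighbouring ETS1 sites (4-24 bp apart). Recombinant human ETS1 (10 nM) was detected with anti-ETS1 antibody fluorescence. Values are medians over 3 replicate spots. The probes sit in constant array flanks that are not printed.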
In turn, CGCGATCTGCTTCCGGGTGTGCAGGAAACTGGGCGC had an ETS1 binding intensity of 20700. Sequence CCAAGCACAGGAAGCACCCTGCCTTCCTGCCTCCTC gave an ETS1 binding intensity of 4330. In the case of ACAAAGCAGGATGCCCAAGAATACTTCCTTGCTTCT, the ETS1 binding intensity came to 1390. The sequence CGTCCTGACTTCCGGGGCGGGACGGAAGAGCGGGCG displayed an ETS1 binding intensity of 25800. GGGGCCACTTCCCGGGGCCAGGCAGGAAGCCCGCCC came in with an ETS1 binding intensity of 3870. Sequence AGACCTTGTGCATCCTGGGCAGGAAACCACAGGCTC had an ETS1 binding intensity of 2140. Regarding AATGGGTCCTTCCTGAGGCTGATTTCCGCTCACTCT, the ETS1 binding intensity is 3120. To ACCCTTGACTCAGGAAGACAGGAAGTTTAACCATGA belongs 2650. GACCAGGAGGAAGTTAGCTGTGGTTTCCGAGGTTAA displayed an ETS1 binding intensity of 1350. In the case of GTAAAGAGGAAGCCGCCGCTTTAGTTTCCTCTTGTG, the ETS1 binding intensity stood at 928. The sequence CGAACAGAGCCGCTTCCGCTTCCGCTCGCGCCGCGC showed an ETS1 binding intensity of 19800. Regarding CCAAGCTGGTTTCCTCTCCGGTTTCCTCCGGGGTGG, the ETS1 binding intensity stood at 3800. To GGCAGGAAGCGGTGTCTAAAGATGCCACTTCCTGGA belongs 6680; to ATTGCACATCCGTCTGGTGTTTGTGTTTCCTGTTGT, 12000. As for CGCAACAGGAAATGACACACAGCACTTCCTCTCATA, the figure is 21600; as for GAGCTGCAGGATGTGGTCAGGAGAGGAAGCGAGGCC, 1810.

CATAGGAGAGGGAAATGATAAGAGGAAATGGCTTCT registered an ETS1 binding intensity of 471.

Turning to CCACGGGCCCATCCTGAGGGGACGGAAATGGTTTCA, the ETS1 binding intensity came out at 772. As for ACCTTGAGGCAGGAAATAGCAGGAAACTCTAACCAC, the figure is 7200; as for CCCCGGATGTTGATATGTCGTCTGCCCCGGAAACGG, 7350. As to GGCTGCTTCCTGTGACAGTGAAATACATCCTTCAAG, the ETS1 binding intensity came out at 28800.

In the case of GCAAACTTCCTCTCACTACAGAGTTATTTCCTGGAA, the ETS1 binding intensity was 19400.

With TCTGACTTCCCCGCTCGCCCGCGCCGCTTCCTCCTC, the ETS1 binding intensity was found to be 924. Sequence TCACTATCAGGAAGATGAAAGCAGGAAATCTACTTT returned an ETS1 binding intensity of 303. As for TACACTTCCCAGAAGTCCAGGCGGCAACTTCCGCTC, the ETS1 binding intensity amounted to 4790.

CGAACCGGAAGCCGGGCCACGTGACCCGGAAGCGGC returned an ETS1 binding intensity of 24800. For TTGGCTCTTCCTGGTTCTACAGTAGCTTCCTGACTT, the ETS1 binding intensity amounted to 4110.

Sequence TGACCCCCGGAAGTCCCGCCCCGAATTCCGGCCCGC yielded an ETS1 binding intensity of 10200. GTCAAGTGACTTCAGGAAGGAAGTGCCTTTTTCTAA showed an ETS1 binding intensity of 335. Sequence CCCAGCCTCACTTCCTGCCACATCCCTCACTGCAGC registered an ETS1 binding intensity of 30400. On to AGGGCGGAAACCACCGGCGCGGGTGACCGGAAGCCC, for which the ETS1 binding intensity is 5300.

Take CGGGCTATTATCCTGTGCCTTGCAGGATGTTTAGCA: the ETS1 binding intensity turned out to be 599. The sequence CGGGGCGGCGGATGTTTGCGCAGCTTCCTTGAGATG returned an ETS1 binding intensity of 2650. In turn, GCGCCGGAAGCAGAGACGCGTTTCGGGAGGAAGGTG showed an ETS1 binding intensity of 3580. In the case of CTGGCCGACAGGATACAACTAAAGGAAATGTGCTAG, the ETS1 binding intensity stood at 602.

CTTATAATGCTTCCTCCTTCTCTTCCTCCCAGTAGG: the ETS1 binding intensity is 1960. Turning to GCAGCTCATCTCTTCCGTAAGGAAGCTGGAACCCAG, the ETS1 binding intensity came out at 473.

Sequence TGTTTACTTCCGGCTTTTCGCCTAATTCCGGCGGCC gave an ETS1 binding intensity of 55000. As to GGTGAAGCGGAAACGCTTCAAACCGGGATGTTGCGG, the ETS1 binding intensity stood at 10200.

Regarding CAGGCCGGAAGCACCTGGGGCCGGGCAGGAAGGTCG, the ETS1 binding intensity came to 9650. GCTGAAGGCAGGAAGTGGAGAGCGGAAGTGAGCTGT registered an ETS1 binding intensity of 15200. In the case of GGGAGGGAAATGGAGCTCCCATGGGTGCTTCCTGGG, the ETS1 binding intensity was 390. GCAAATTCAGGAAATGAGCCTGTTTCCTCCTATTAT yielded an ETS1 binding intensity of 4350. Sequence CCTCAGGATGGCATCAGCCTGTGACCACTTCCTGTG came in with an ETS1 binding intensity of 2200. Take GCTCACACTTCCCCGTGGTGTCTCAGGATGAGGTAA: the ETS1 binding intensity turned out to be 406. TTACACAGGGCAGGATGTGGGGGAAGTTACAGACAG showed an ETS1 binding intensity of 2170. In turn, TTGGGACCCGCTATCCGCTCTTTCCGTCCTCCAGGC came in with an ETS1 binding intensity of 293. In turn, AAACGGCGGAAGTAGGCCGCAGCGCTTCCTCAGTAT registered an ETS1 binding intensity of 9980.

The sequence AATAGAGGGAGAAGGAAATGGGATGTTAGAAGGTGA returned an ETS1 binding intensity of 314. GACAGTCCCAGGAAGTTGTAAGCTTCCTGTCCTTGG showed an ETS1 binding intensity of 6260. In the case of GCGCAATTTCCTGTGGCCTTTTCATTTCCTGCTGGG, the ETS1 binding intensity was determined as 28800.

CTGAGTTCCGCCTGCGGGACCTGAGGCTTCCTGCAG showed an ETS1 binding intensity of 2320. As for TCACAGAGCACAGGAAATACTTCCGCCCGCCCGTCA, the figure is 18400; as for TGGGTGGCAGGAAGTGCTGTGGTTTCCTCCACCTGA, 8520.

Turning to CAGAGGGACTTCCCGCCAAAGCTCTTCCGGTTTTCA, the ETS1 binding intensity came out at 11400. To ATTGATGTGGTTCCGTTGTACAGGAAGTGGCATTTA belongs 4260; to CCACTTCCGGCATGCGCAGGGACGCACCTTCCGGCT, 109000; to GAGCTGCGGAAGGGAGAGTCAGCGCTTCCGAGGCGG, 242.

For CTGACAACATCCTCATGAGTGCATTTCCCTTCTGCA, the ETS1 binding intensity was 2790.

The sequence CACTCACTTTCCTGTTAGGAAAGTTTCCTGTTAGGG came in with an ETS1 binding intensity of 5530. For the sequence TTGCCGGAAATGACGAACGAGTCAACCGGATCGGTG, the ETS1 binding intensity stood at 8930. With GCCTCCCGACATCCTGGGAGCCGGAAGGGGCGTTGC, the ETS1 binding intensity was determined as 6200. Sequence CATAGTTTCCTCTGAGGTAATAAACAGGATTCCCAC came in with an ETS1 binding intensity of 2850.
